Source: the RNAGym collection of RNA variant scans (doi:10.7554/elife.90254)
The source gives no read counts; variants with many changes may rest on few reads.

B1: OR4K15 (parent)
chain: GUUAACGGUCAUAGGCCAUGGAAACUAGGAGCACCAUUUCGCUGCCAGUGAAGAAAUGAACAAAGAAAAUCUGGGCCAGGCAGGCAUCAAAAGAAAUAGUCUUGCGCUCAACCAGAAAGUCUGUAAUCAUUUUAAGGGUA

Variants of: B1
Assay: self-cleavage, relative activity (ratio to wild type); higher = more cleavage; in vitro, sequencing; the parent is a self-cleaving ribozyme

Variant | self-cleavage
A51G A96G U103C | 0.9
A4G A24G A56G U87A | 1.38
C40U A47G U70C U108C U124A U132G | 0
G75U A86U A135U | 0.09
U39C A67G A82G | 0.45
A60U A91U U127A | 1.8
U39C U57C A86G A92G U108A A117G A118G | 0.01
U2C U3C A94G | 1.1
A18G U37C U139A | 1.09
A5G A86G A114G | 0.22
A13G A51G A86G G99A | 0.16
A33G A59U A68G U72A U131C | 0.02
A47U A54G U100C U124C | 2.45
A36C C42U A67C A78G A91G | 0.12
U2C U72A A94G | 0.21
A30U A63G U100C | 2.22
U37C U87A U108C | 0.01
U43G A117G U130A | 2.07
A4G A52G A59G A63G U72A U87A | 0.43
A78G A82G A94G | 0.15
A27G A51G A90G | 1.45
A22G A30G C81A | 0
A27G A33U U37C A62G A69G U87C A117U A135G | 0.91
G79U A126G A140G | 0.03

Variant | self-cleavage
A4G G31A U87A | 0.94
U37C U39A U103C A118U | 0.16
U39A G50A A94G | 2.17
A78U A114G U122C | 0.02
A59G A67U A126C | 1.65
A60G A63G U70C U133C | 0.36
A90G A91G U97C U133A | 0.87
A56G A60G A110U | 0.99
U39A A62G A63U A69G A91G A125G | 0.43
U38C U49C A60G A64G U72A | 0.43
U37C A47G A68C U87C A126G | 1.01
A66U U122C U132C | 0.28
A5C U103C A114U | 0.15
A13G A23G A51G A117G A118G A129G | 1.13
A23G U38C A54G A94G U122C U127C | 0.54
A5G A60G A66G U97C U108C A116G | 0
U72A A78U U120C | 0.09
G1A A5G A66G U102A U108C A116G | 0
U9C U72C A91G U139A | 0.31
U2C A24G A51G A78G | 0.3
A23G A27G A30U A94U U97C U122C A140G | 0.97
U38C A51G A110G | 0.14
U37C A56G A67C | 2.06
A66G U87C U108C | 0.01

Variant | self-cleavage
A18G A30U A55G A86U A116G | 0.23
A24G A59U A66G A95G | 0.8
U38C A51U A117G | 2
A23G U49C A96G | 2
A22G A69G A78G | 0.28
A47G A63G A66G U100C U120A A126G | 2.26
A4U U12A A118G | 0.65
U2C U26A A69G A117G | 0.67
U9A U49C C107U | 0
A47G U108C U127C | 0
A86G U120A U127A A134G A135U | 2.29
A13G U108C U132C | 0.03
A5G U37C A47G U49A A52G A64G A92C C105A U122A | 0.01
U9C A66G A89G U131C | 1.13
A82G A90G A118G | 0.12
A13U U37C U43A A60G A66G C85A U87C | 2.04
A82U U103G A114U | 0.01
A36C A110G A114G A118G U124C | 0.01
C16U G31A C107U U127A | 0.12
U43C A94G U130C | 0.9
U19C A52G A82G A129G | 0.36
A116U A117G U130C | 0.01
A55G A82G U87G A94G U120C | 0.18
A33U U37C A56G U130C | 0.98

Variant | self-cleavage
A11G A23U U26A U103C U108C A118G | 0.02
A36U A54G A117G | 1.09
A62U U70C C105A U130C | 0.01
C71U A78G A90U A95G A118G | 0.2
G84C A92G U133C | 0.38
A47C A66U U100C A118U | 1.26
U39C A95G A114G | 1.35
A5G U9C A96G U130C | 0.67
A90G U103C U108C | 0
A24C A67G U132C U139C | 1.18
A5G A51G A59G G93U | 0.99
A23G G65U A117G | 1.94
A86G A96G C105U | 0.28
A23G U57A U97C U103C U132C | 0.28
A24C U70C U131C | 1.11
U38C A51G A82U | 0.21
A91G U103C A110G U132A | 0.06
U39A A63G A69G U102C G106A A140G | 0.02
A22G A33G A56G A68G A78U A111G U130C | 0.01
U9C A52G U108A U122A | 0.03
A67G A94G G104A U108C A116G | 0
A47C A94G A116G | 0.61
U39C A67U G79C | 0.08
C35U A90C U124A U130C | 0.2

Variant | self-cleavage
A54G A62G C81U | 0.25
U2C U3C U39C A135G | 0.67
A51U U72G G99A U132A | 0.08
A13C U43C U49C U87C | 1.09
U38A U72A G79U | 0.16
A55G A67G A92G | 2.33
A27C A82G A114G | 0.24
U37C A92G U102A U131C | 0.56
A66G C81U U102C | 0.91
A51U A82G U127C U130C | 0.15
A11G U49C A89G A111G | 0.05
A18G A33C G50A U70C A90G A126C | 0.58
A59G U97C U124A | 0.48
U19C A24G A52U A140G | 0.73
U3G A116U U139A | 0.12
A4G U39A U49C U130C A134G | 0.78
A5C A59G U87A U120G | 1.45
G7A A60G A82U U87C U102C | 0.13
C25U C46U A63U | 1.1
U9C A47G A89G | 1.07
G41A A55G U57A A89G | 1.16
A60G A94U A110U U120C | 0.84
A30G A51U G84A | 0
C61U U70C U108C | 0.03

Variant | self-cleavage
A4G G75A U132C | 0.11
A59G A62U U103C | 0.57
A18G G21A A90U A92G | 1.33
A4G U39C A94U | 2
A5C A67G U132C | 1.42
U2C A51G U127C | 0.35
A5U A67G A86G | 1.05
A47U A56G A69G C107U | 0.02
A59U A96G U97C A116G | 0.13
U12C U26C A92G U122C U139A | 0.8
C16U A33G A67G A94G A117G | 0.98
A54G A82C A117U | 0.07
A23G U130C A135U A140G | 1.24
A95G A110G A117G | 0.11
A91U U124A A126G | 0.79
A47G A117G U124G | 0.92
A55G U57C A86G U87C A89G U103C A129U U132C | 0.01
A5G A27G A59U A68G | 0.94
U37C C71U U108C U130C | 0.01
U2A A18U U38C A51G U108C | 0.07
A67C A89G A95U U130C | 1.2
A52G A68G U70C U132C | 1.29
U43C C77U U108A | 0.03
A56G A69G A125G | 0.3

Variant | self-cleavage
C25A A33G A60G | 1.11
A91G U103C A116G U122C U124A | 0.06
A5G G15A G80C | 0.14
A23G A33G U97C U122A | 0.12
A55G A62G G73A | 0.04
A96U A111U G123A U139C | 0.12
A52G U72C G73U A78U | 0.13
A30G A89G U100C A118G | 0.75
G50A A89G C105U A117G | 0.3
C17U U26C A54G | 0.79
A23G A82G A134G | 0.47
U2C A59G A129G | 0
G7U U37C A56G | 1.49
G48A A60G A68G U70A U131C | 0.37
A47G U57A U103C U124A | 0.07
A89U A111G U132C A135G | 0.01
U9C A60G A66U A86U U102A | 0.68
A60G C121U U127C G137A | 1.48
A18G U70C U72C | 0.23
G8A A24G U108C | 0.03
U19A A56G U57C A90G | 0.73
A47U A89U A117G | 2.04
U9C A22G A63G A92G | 1.64
